We go through 9 compounds from the antibiotic and cytotoxicity screens of Wong et al. (2023).

Some of the results follow.

The test has as its system S. aureus RN4220. Description: growth inhibition call (relative growth <= 0.2). To be noted: 50 µM.
Turning to `C[C@@H]1CN([C@H](C)CO)C(=O)c2cccc(NC(=O)Nc3cccc4ccccc34)c2O[C@H]1CN(C)C(=O)Nc1cccc2ccccc12`, the growth inhibition call is “inactive”.

For the compound `Cc1noc(C)c1NC(=O)N(C)C[C@@H]1Oc2ccc(NC(=O)CCCN(C)C)cc2C(=O)N([C@@H](C)CO)C[C@H]1C`, the growth inhibition call was “inactive”.

For `CN1CCN(C(=O)C[C@@H]2CC[C@@H]3[C@H](COc4ccc(NC(=O)C5CCCCC5)cc4C(=O)N3C)O2)CC1`, the growth inhibition call was “inactive”.

`C[C@H](CO)N1C[C@H](C)[C@H](CN(C)C(=O)c2ccccn2)Oc2cc(C#Cc3ccc(F)cc3)ccc2S1(=O)=O`: the growth inhibition call was “inactive”.

As to `C[C@@H]1CCCCO[C@H](CN(C)C(=O)NC2CCCCC2)[C@H](C)CN([C@H](C)CO)C(=O)c2cc(NC(=O)C3CCCCC3)ccc2O1`, the growth inhibition call is “inactive”.

Take `Cn1c(=O)n2n(c1=O)[C@H](C1CC1)C=C1CN3[C@@H]([C@H](CCn4cc(-c5cccc(/C=C/C(=O)NO)c5)nn4)OC(=O)[C@@H]3Cc3ccccc3)[C@@H]12`: the growth inhibition call is “inactive”.

Take `S=C1NCN(Cc2cccs2)CN1`: the growth inhibition call is “inactive”.

Regarding `CO[C@@H]1CN(C)C(=O)c2ccc(NS(=O)(=O)c3cn(C)cn3)cc2OC[C@@H](C)N(CC2CC2)C[C@H]1C`, the growth inhibition call was “inactive”.

Turning to `Cc1ccc(S(=O)(=O)Nc2cccc3c2O[C@@H](CN(C)C(=O)NC(C)C)[C@@H](C)CN([C@@H](C)CO)C3=O)cc1`, the growth inhibition call is “inactive”.
